Reference: the supplement of paper PMC8728848
Some of the results follow.

What was measured:
Test in all cases: glycan array binding signal (z-score within array); higher = stronger binding
Details in all cases: glycan notation: IUPAC condensed, linker removed
[1] = target: Neu5Ac(a2-6)Gal(b1-4)GlcNAc(b1-3)Gal(b1-4)GlcNAc(b1-2)Man(a1-3)[Neu5Ac(a2-6)Gal(b1-4)GlcNAc(b1-3)Gal(b1-4)GlcNAc(b1-2)Man(a1-6)]GalNAc
Outline: (§1)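 Arrays were curated from the Consortium for Functional Glycomics database, 3228 in total, and kept only where the protein sequence was available. Binding is expressed as a within-array Z-score. This score was averaged across arrays of the same protein sequence at different concentrations or buffers and across linkers, and negative values can be read as non-binding.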

[2] = target: Neu5Ac(a2-6)Gal(b1-4)GlcNAc(b1-3)Gal(b1-4)GlcNAc(b1-3)Gal(b1-4)GlcNAc
Outline: as §1

[3] = target: Neu5Ac(a2-6)Gal(b1-4)GlcNAc(b1-3)Gal(b1-4)GlcNAc(b1-3)Gal(b1-4)GlcNAc(b1-2)Man(a1-3)[Neu5Ac(a2-6)Gal(b1-4)GlcNAc(b1-3)Gal(b1-4)GlcNAc(b1-3)Gal(b1-4)GlcNAc(b1-2)Man(a1-6)]GalNAc
Outline: as §1

[4] = target: Neu5Ac(a2-6)Gal(b1-4)GlcNAc(b1-3)Gal(b1-4)GlcNAc(b1-3)GalNAc
Outline: as §1

[5] = target: Neu5Ac(a2-6)Gal(b1-4)GlcNAc(b1-3)Gal(b1-4)GlcNAc(b1-3)[Neu5Ac(a2-6)Gal(b1-4)GlcNAc(b1-3)Gal(b1-4)GlcNAc(b1-6)]GalNAc
Outline: as §1

[6] = target: Neu5Ac(a2-6)Gal(b1-4)GlcNAc(b1-3)Gal(b1-4)GlcNAc(b1-6)[Gal(b1-3)]GalNAc
Outline: as §1

[7] = target: Neu5Ac(a2-6)Gal(b1-4)GlcNAc(b1-3)Gal(b1-4)[Fuc(a1-3)]GlcNAc(b1-3)Gal(b1-4)[Fuc(a1-3)]GlcNAc
Outline: as §1

[8] = target: Neu5Ac(a2-6)Gal(b1-4)GlcNAc(b1-3)GalNAc
Outline: as §1

[9] = target: Neu5Ac(a2-6)Gal(b1-4)GlcNAc(b1-3)[Neu5Ac(a2-6)Gal(b1-4)GlcNAc(b1-6)]GalNAc
Outline: as §1

[10] = target: Neu5Ac(a2-6)Gal(b1-4)GlcNAc(b1-6)GalNAc
Outline: as §1

[11] = target: Neu5Ac(a2-6)Gal(b1-4)GlcNAc(b1-6)[Gal(b1-3)GlcNAc(b1-3)]Gal(b1-4)Glc
Outline: as §1

[12] = target: Neu5Ac(a2-6)Gal(b1-4)GlcNAc(b1-6)[Gal(b1-3)]GalNAc
Outline: as §1

[13] = target: Neu5Ac(a2-6)Gal(b1-4)GlcNAc6S
Outline: as §1

Neu5Ac(a2-6)GalNAc = target: Neu5Ac(a2-6)GalNAc
Outline: as §1

[14] = target: Neu5Ac(a2-6)GalNAc(b1-4)GlcNAc
Outline: as §1

[15] = target: Neu5Ac(a2-6)GalNAc(b1-4)GlcNAc6S
Outline: as §1

[16] = target: Neu5Ac(a2-6)GlcNAc(b1-4)GlcNAc
Outline: as §1

[17] = target: Neu5Ac(a2-6)GlcNAc(b1-4)GlcNAc(b1-4)GlcNAc
Outline: as §1

Neu5Ac(a2-8)Neu5Ac = target: Neu5Ac(a2-8)Neu5Ac
Outline: as §1

[18] = target: Neu5Ac(a2-8)Neu5Ac(a2-3)Gal(b1-3)GalNAc(b1-4)[Neu5Ac(a2-3)]Gal(b1-4)Glc
Outline: as §1

[19] = target: Neu5Ac(a2-8)Neu5Ac(a2-3)Gal(b1-3)GalNAc(b1-4)[Neu5Ac(a2-8)Neu5Ac(a2-3)]Gal(b1-4)Glc
Outline: as §1

[20] = target: Neu5Ac(a2-8)Neu5Ac(a2-3)Gal(b1-4)Glc
Outline: as §1

[21] = target: Neu5Ac(a2-8)Neu5Ac(a2-3)Gal(b1-4)GlcNAc
Outline: as §1

[22] = target: Neu5Ac(a2-8)Neu5Ac(a2-3)[Gal(b1-3)GalNAc(b1-4)]Gal(b1-4)Glc
Outline: as §1

[23] = target: Neu5Ac(a2-8)Neu5Ac(a2-3)[GalNAc(b1-4)]Gal(b1-4)Glc
Outline: as §1

[24] = target: Neu5Ac(a2-8)Neu5Ac(a2-8)Neu5Ac
Outline: as §1

[25] = target: Neu5Ac(a2-8)Neu5Ac(a2-8)Neu5Ac(a2-3)Gal(b1-4)Glc
Outline: as §1

[26] = target: Neu5Ac(a2-8)Neu5Ac(a2-8)Neu5Ac(a2-3)[Gal(b1-3)GalNAc(b1-4)]Gal(b1-4)Glc
Outline: as §1

[27] = target: Neu5Ac(a2-8)Neu5Ac(a2-8)Neu5Ac(a2-3)[GalNAc(b1-4)]Gal(b1-4)Glc
Outline: as §1

[28] = target: Neu5Ac(a2-8)Neu5Ac(a2-8)Neu5Ac(a2-8)Neu5Ac(a2-3)[GalNAc(b1-4)]Gal(b1-4)Glc
Outline: as §1

[29] = target: Neu5Ac(a2-8)Neu5Gc(a2-3)Gal(b1-4)GlcNAc
Outline: as §1

[30] = target: Neu5Ac(b2-6)Gal(b1-4)GlcNAc
Outline: as §1

Neu5Ac(b2-6)GalNAc = target: Neu5Ac(b2-6)GalNAc
Outline: as §1

[31] = target: Neu5Ac9Ac(a2-3)Gal(b1-4)GlcNAc
Outline: as §1

[32] = target: Neu5Ac9Ac(a2-6)Gal(b1-4)GlcNAc
Outline: as §1

[33] = target: Neu5Gc(a2-3)Gal(b1-3)GlcNAc
Outline: as §1

[34] = target: Neu5Gc(a2-3)Gal(b1-3)[Fuc(a1-4)]GlcNAc
Outline: as §1

Neu5Gc(a2-3)Gal(b1-4)Glc = target: Neu5Gc(a2-3)Gal(b1-4)Glc
Outline: as §1

[35] = target: Neu5Gc(a2-3)Gal(b1-4)GlcNAc
Outline: as §1

[36] = target: Neu5Gc(a2-3)Gal(b1-4)GlcNAc(b1-3)Gal(b1-4)GlcNAc(b1-2)Man(a1-3)[Neu5Gc(a2-3)Gal(b1-4)GlcNAc(b1-3)Gal(b1-4)GlcNAc(b1-2)Man(a1-6)]Man(b1-4)GlcNAc(b1-4)GlcNAc
Outline: as §1

[37] = target: Neu5Gc(a2-3)Gal(b1-4)[Fuc(a1-3)]GlcNAc
Outline: as §1

[38] = target: Neu5Gc(a2-6)Gal(b1-4)GlcNAc
Outline: as §1

Neu5Gc(a2-6)GalNAc = target: Neu5Gc(a2-6)GalNAc
Outline: as §1

[39] = target: Neu5Gc(a2-8)Neu5Ac(a2-3)Gal(b1-4)GlcNAc
Outline: as §1

[40] = target: Neu5Gc(a2-8)Neu5Gc(a2-3)Gal(b1-4)GlcNAc
Outline: as §1

B1: Threefoil (Haloarcula marismortui) (protein)
chain: GSSHHHHHHHHHHSSGLVPRGSHMGDGYYKLVARHSGKALDVENASTSDGANVIQYSYSGGDNQQWRLVDLGDGYYKLVARHSGKALDVENASTSDGANVIQYSYSGGDNQQWRLVDLGDGYYKLVARHSGKALDVENASTSDGANVIQYSYSGGDNQQWRLVDL
glycan array binding signal (z-score) [1]: 0.002 | glycan array binding signal (z-score) [2]: -0.154 | glycan array binding signal (z-score) [3]: -0.02 | glycan array binding signal (z-score) [4]: -0.072 | glycan array binding signal (z-score) [5]: -0.073 | glycan array binding signal (z-score) [6]: -0.183 | glycan array binding signal (z-score) [7]: -0.141 | glycan array binding signal (z-score) [8]: -0.163 | glycan array binding signal (z-score) [9]: -0.205 | glycan array binding signal (z-score) [10]: -0.125 | glycan array binding signal (z-score) [11]: -0.212 | glycan array binding signal (z-score) [12]: -0.06 | glycan array binding signal (z-score) [13]: -0.238 | glycan array binding signal (z-score) (Neu5Ac(a2-6)GalNAc): -0.27 | glycan array binding signal (z-score) [14]: -0.193 | glycan array binding signal (z-score) [15]: -0.319 | glycan array binding signal (z-score) [16]: -0.215 | glycan array binding signal (z-score) [17]: -0.141 | glycan array binding signal (z-score) (Neu5Ac(a2-8)Neu5Ac): -0.306 | glycan array binding signal (z-score) [18]: -0.269 | glycan array binding signal (z-score) [19]: -0.063 | glycan array binding signal (z-score) [20]: -0.236 | glycan array binding signal (z-score) [21]: -0.178 | glycan array binding signal (z-score) [22]: -0.146 | glycan array binding signal (z-score) [23]: -0.322 | glycan array binding signal (z-score) [24]: -0.234 | glycan array binding signal (z-score) [25]: -0.261 | glycan array binding signal (z-score) [26]: -0.31 | glycan array binding signal (z-score) [27]: -0.347 | glycan array binding signal (z-score) [28]: -0.069 | glycan array binding signal (z-score) [29]: -0.072 | glycan array binding signal (z-score) [30]: -0.309 | glycan array binding signal (z-score) (Neu5Ac(b2-6)GalNAc): -0.129 | glycan array binding signal (z-score) [31]: -0.252 | glycan array binding signal (z-score) [32]: -0.303 | glycan array binding signal (z-score) [33]: -0.296 | glycan array binding signal (z-score) [34]: -0.1 | glycan array binding signal (z-score) (Neu5Gc(a2-3)Gal(b1-4)Glc): -0.142 | glycan array binding signal (z-score) [35]: -0.297 | glycan array binding signal (z-score) [36]: -0.282 | glycan array binding signal (z-score) [37]: -0.207 | glycan array binding signal (z-score) [38]: -0.253 | glycan array binding signal (z-score) (Neu5Gc(a2-6)GalNAc): -0.171 | glycan array binding signal (z-score) [39]: -0.219 | glycan array binding signal (z-score) [40]: -0.325
